Experimental data taken from PubChem BioAssay AID1240 (Sanford-Burnham Center for Chemical Genomics, 2008).
Where “and” joins values, the source holds several entries; their conditions need not be identical. Equal values may be shown once. Screen size: about 50,000 compounds; about 800 (1.6%) showed an effect of 50% or more. The list shows a part of the results.

Target: Bcl-2-like protein 10 (Homo sapiens) (UniProt Q9HD36)
Assay: Phenotype converters, Bcl-B/TR3 peptide binding displacement, primary biochemical FP (AID 1240);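 also: 0% = Bcl-B with tracer peptide and DMSO and 100% = tracer peptide lacking Bcl-B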
Settings: GST-Bcl-B / FITC-TR3 peptide fluorescence polarization; stronger effect = higher value; compound at 3.75 mg/L

UniProt Q9HD36, sequence (Q9HD36 whole entry, looked up): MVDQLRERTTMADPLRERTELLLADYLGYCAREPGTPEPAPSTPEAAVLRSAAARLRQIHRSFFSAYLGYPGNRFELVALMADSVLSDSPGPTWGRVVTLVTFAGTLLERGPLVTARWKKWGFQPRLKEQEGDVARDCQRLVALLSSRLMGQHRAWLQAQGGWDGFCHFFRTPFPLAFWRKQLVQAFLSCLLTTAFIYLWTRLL

| SMILES | displacement |
| --- | --- |
| COc1ccc(C(=O)N2CCN(S(C)(=O)=O)CC2)cc1 | 12.9% |
| COc1ccc(/C=C2/C=C(c3ccc(OC)c(OC)c3)OC2=O)cc1OC | 189% |
| Cc1ccc(C(=O)Nc2ccccc2C(=O)NCc2ccco2)cc1 | -7% |
| CC(C)c1ccc(NC(=O)C(=O)NCc2ccccn2)cc1 | -9.6% |
| Cc1ccc(C)c(S(=O)(=O)NCc2ccccn2)c1 | 5.2% |
| O=C(COc1ccc(Cl)cc1Br)NNC(=O)c1ccccc1O | 3.2% |
| Cc1ccccc1N1CCN(C(=S)c2ccccc2)CC1 | 13% |
| COC(=O)c1cc(NC(=O)c2ccc(Cl)c([N+](=O)[O-])c2)cc(C(=O)OC)c1 | 2.6% |
| COC(=O)c1sc2nccc(N(C)C)c2c1N | -9.2% |
| O=C(Nc1cc(Cl)cc(Cl)c1)c1ccc(S(=O)(=O)N2CCCCC2)cc1 | 8.2% |
| O=S(=O)(CCSc1ccc(Cl)cc1)OCC(F)(F)F | 16.4% |
| CCOC(=O)c1csc(NC(=O)c2ccc(-c3ccccc3)cc2)n1 | 9.4% |
| O=C(NCCN1CCOCC1)c1cnn2c1NC(c1cccs1)CC2C(F)(F)F (stereo not given) | -1.7% |
| CC(=O)N1C(=O)NC2CC1NC(=O)N2C(C)=O | 13.5% |
| OC1(c2ccccc2)c2ccccc2-c2ncccc21 (stereo not given) | 16.8% |
| COc1cc(C(=O)N2c3ccccc3CC2C)cc(OC)c1OC (stereo not given) | 10.3% |
| C(=C(\c1ccccc1)c1nc2ccccc2[nH]1)/c1ccco1 | 2.2% |
| CCOc1ccc(C(=O)Nc2ccc(OC)cc2OC)cc1OCC | 3% |
| O=C(c1ccncc1)N1CCN(Cc2ccc(F)cc2)CC1 | -5% |
| Cc1ccc(NC(=O)CC(C(=O)O)C2CCCO2)cc1 (stereo not given) | -7.5% |
| c1ccc(OCCCN2CCCCC2)cc1 | -7.2% |
| O=C(Nc1ccc(Br)cc1)c1ccccc1C(F)(F)F | 23.2% |

| SMILES | displacement |
| --- | --- |
| O=[N+]([O-])c1ccc(Sc2c(-c3ccccc3)nc3sccn23)cc1 | 1.4% |
| CCOc1cc(C(=S)N2CCOCC2)cc(Br)c1O | 11% |
| Cc1ccc(OCc2nnc(NC(=O)c3ccccc3C)s2)c(C)c1 | -0.9% |
| COc1ccc(/C=N/N=C2/SC(CC(=O)O)C(=O)N2c2ccc(O)cc2)cc1 (stereo not given) | 6% |
| Cc1ccc(S(=O)(=O)N/N=C/c2c(Cl)cccc2Cl)cc1[N+](=O)[O-] | 9.2% |
| O=C(CC(c1ccccc1)c1ccccc1O)N1CCNCC1 (stereo not given) | -5.3% |
| C=CCN1C(=O)/C(=C\c2ccccc2I)C(=O)NC1=S | -3.2% |
| CCNC(=O)CC1S/C(=N\N=C(C)C)NC1=O (stereo not given) | -24.4% |
| CC1(C)CC(=O)C2=C(C1)NC1=C(C(=O)CC(C)(C)C1)C2c1c(Cl)cccc1Cl | 10% |
| CCOC(=O)NC(NC(=S)Nc1ccccc1I)C(Cl)(Cl)Cl (stereo not given) | -7.6% |
| O=C(COc1ccccc1)NCC1CCCO1 (stereo not given) | 4.6% |
| O=C(O[C@H]1CCN(C(=O)c2ccccc2)[C@@H]2CCCC[C@H]12)c1ccccc1 | -3% |
| O=C1CC(Nc2ccc(N3CCOCC3)cc2)C(=O)N1c1cccc(Cl)c1 (stereo not given) | 1.4% |
| COc1cc(Nc2cc(C)c(C#N)c3nc4ccccc4n23)cc(OC)c1OC | 4.6% |
| Cc1nn(C(=O)c2ccccc2)c(C)c1Sc1ccc([N+](=O)[O-])cc1 | 2.4% |
| CCOc1cc(C(=O)NCC2CCCO2)cc(OCC)c1OCC (stereo not given) | 0.4% |
| Cc1cc(/C=C2/NC(=S)NC2=O)c(C)n1-c1cccnc1 | -12.2% |
| O=C(c1ccccc1)c1ccc(C(=O)N2CCN(C(=O)c3ccc(C(=O)c4ccccc4)cc3)CC2)cc1 | 6.7% |
| COc1ccc(CN2CCN(S(C)(=O)=O)CC2)cc1Br | -11.8% |
| O=C(Nc1ccc(Oc2ccc(NC(=O)c3ccco3)cc2)cc1)c1ccco1 | 3.5% |
| CCOCCOC(=O)C1=C(C)NC(=O)NC1c1ccc(O)cc1 (stereo not given) | -2.1% |
| O=C1NC(=S)N/C1=C/c1cc(Br)c(O)c(I)c1 | -87.1% |

| SMILES | displacement |
| --- | --- |
| CCOC(=O)c1sc2c(c1NC(=O)c1ccc3c(c1)OCCO3)CCCC2 | -3.8% |
| COc1ccc(/C(C)=N/n2cnnc2)cc1 | 13.8% |
| COc1ccc2ccccc2c1C1NC(=O)NC(C)=C1C(=O)Nc1cc(Cl)ccc1C (stereo not given) | 14% |
| COC(=O)c1ccc(/C=C/C(=O)c2cccc(OC)c2)cc1 | 2.4% |
| CC(=O)c1ccc2c(c1)C1C=CCC1C(c1ccc([N+](=O)[O-])cc1)N2 (stereo not given) | 11.3% |
| CCOc1ccccc1C(=O)Nc1cc(C)ccn1 | 8.1% |
| Cc1cc2nc(Nc3nc4ccccc4c(=O)[nH]3)nc(C)c2cc1C | 5.6% |
| CCOc1ccc(/C=C2/SC(NC(C)=O)=NC2=O)cc1OCC | 54.6% |
| O=C1C2ON(c3ccccc3)C(c3ccc(OC(F)F)cc3)C2C(=O)N1c1ccccc1C(F)(F)F (stereo not given) | 3.9% |
| COc1cc([N+](=O)[O-])ccc1NC(=O)COc1cc(C)ccc1C(C)(C)C | 4.4% |
| CC1=NN(C(=O)C(C)C)C(O)(c2ccc(Br)cc2)C1 (stereo not given) | 7.4% |
| COc1ccc(N/C=C(/C2=CC(=O)C=CC2=O)[N+](=O)[O-])cc1 | 16.6% |
| COc1ccccc1NC(=O)C(=O)N/N=C/c1cccc(OC)c1OC | 4.8% |
| O=C(NC12CC3CC(CC(C3)C1)C2)c1cc2ccccc2o1 | -1.3% |
| CCCCOc1ccc(C(=O)Nc2cccc(NC(=O)c3ccccc3Cl)c2)cc1 | 7.1% |
| O=C(O)CCC(=O)Nc1sc2c(c1C(=O)Nc1ccc(Cl)cc1)CCCCC2 | 20% |
| O=C(c1cccc(F)c1)N1CCN(c2ccc([N+](=O)[O-])cc2)CC1 | 118% |
| O=C(Cc1cccs1)NCc1cccnc1 | 11.7% |
| COc1ccc(-c2cc(C(=O)Nc3nc4ccc(S(C)(=O)=O)cc4s3)c3ccccc3n2)cc1OC | 5% |
| CN(C1=NS(=O)(=O)c2cc([N+](=O)[O-])ccc21)c1ccccc1 | 7.9% |
| COc1ccccc1N1CCN(C(=O)c2ccc(N(C)C)cc2)CC1 | 12.4% |
| Cc1cccc(NC(=O)/C=C(\C(=O)O)c2ccc(Cl)cc2)c1C | 6% |

| SMILES | displacement |
| --- | --- |
| Cc1ccc(C(=O)Nc2ccc(C(=O)O)cc2)cc1S(=O)(=O)NC1CCCCC1 | -11.1% |
| CCOC(=O)c1[nH]c2c([N+](=O)[O-])cc(C)cc2c1C | 10.6% |
| Cc1cc(Cl)cc(C)c1OCCCCCCn1ccnc1 | 6.8% |
| CCOC(=O)C1CCN(C(=O)COc2ccc3ccccc3c2)CC1 | 5.9% |
| CCOC(=O)C1CCN(C(=O)Cc2ccccc2OC)CC1 | -4% |
| COc1ccc(CCNS(=O)(=O)c2ccccc2[N+](=O)[O-])cc1 | -9.9% |
| CON1C(=O)CN(C(C)=O)C1c1ccc(Cl)cc1Cl (stereo not given) | 4.8% |
| CCOC(=O)C1=C(C)N=c2s/c(=C\c3ccc4c(c3)OCO4)c(=O)n2C1c1ccc(F)cc1 (stereo not given) | 29% |
| COc1ccc(/C=C2\SC(=S)N(Nc3ccccc3)C2=O)cc1OC | 7.1% |
| COc1ccc(/C=c2/sc3nc(-c4ccc(C(C)(C)C)cc4)nn3c2=O)cc1 | 11.3% |
| COc1ccc(CCNC2CC(=O)N(CCc3ccccc3)C2=O)cc1 (stereo not given) | -3.1% |
| COc1ccc(-c2n[nH]c(=S)o2)cc1 | 14.9% and -0.1% |
| CC(=O)c1c(C)oc2c1cc(OC(=O)c1ccco1)c1ccccc12 | 18.6% |
| CCN(CC)c1ccc(/C=C2\SC(N)=NC2=O)c(OCc2ccc(Cl)cc2)c1 | -13.7% |
| O=C(COc1ccccc1Cl)Nc1ccc2nn(-c3ccccc3)nc2c1 | 78.4% |
| CC1(C)CC(=O)C2=C(C1)Nc1ccccc1NC2c1cccc2ccccc12 (stereo not given) | 23.3% |
| C=C(C)c1cccc(C(C)(C)NC(=O)NCCc2ccccc2)c1 | 14% |
| O=C(c1ccc(Cl)cc1[N+](=O)[O-])N1CCN(Cc2ccccc2)CC1 | 1.1% |
| COc1cccc(C(=O)N2CCN(Cc3cccc(Cl)c3)CC2)c1 | -10.4% |
| N#C/C(=C/c1cccc(Cl)c1)C(=O)Nc1cccc(Br)c1 | -10.3% |
| CCN(CC)CCCOc1ccccc1[N+](=O)[O-] | 5.8% |
| N#C/C(=C\c1cccc(F)c1)c1nc(-c2ccc([N+](=O)[O-])cc2)cs1 | 8.5% |

| SMILES | displacement |
| --- | --- |
| CC(=O)Nc1ccccc1C(=O)N1CCC(Cc2ccccc2)CC1 | 15.8% |
| Cc1cccc(NC2=C(Cl)C(=O)N(c3cccc(Cl)c3Cl)C2=O)c1 | 14.4% |
| O=c1[nH]c2ccc(Cl)cc2c(-c2ccccc2)c1Sc1nc2ccccc2[nH]1 | -11.5% |
| O=C1NC(=S)S/C1=C\c1ccc(O)c(O)c1 | -1.6% |
| Clc1cccc(OCCOCCN2CCOCC2)c1Cl | -8% |
| Cc1cc(C=C2C(=O)c3ccccc3C2=O)c(-c2ccccc2)n1-c1ccccc1 | 68% |
| COc1ccc(N2C(=O)C(Cl)=C(Nc3cc(OC)ccc3OC)C2=O)cc1 | -2.5% |
| CCOC(=O)C(O)(c1ccc(N(CC)CC)cc1)C(F)(F)F (stereo not given) | 3.9% |
| Cc1cccc(N2C(=O)/C(=C/c3ccc(C(=O)O)cc3)SC2=S)c1C | 0.5% |
| CC1(C)CC(=O)C2=C(C1)OC1=C(C(=O)CC(C)(C)C1)C2c1cc2c(cc1Cl)OCO2 | 7.2% |
| CCc1ccc(NC(=O)C2CCCCC2)cc1 | -5.9% |
| O=C(O)CCCCCN1C(=O)C(O)=C(C(=O)/C=C/c2ccccc2)C1c1ccccc1Cl (stereo not given) | -7.2% |
| CC(NC(=O)C(=O)NCC1CCNCC1)c1ccccc1 (stereo not given) | 8.8% |
| CC(=O)ON=C1c2cc(S(=O)(=O)N(C)C)ccc2-c2ccc(S(=O)(=O)N(C)C)cc21 | 12.1% |
| CCOC(=O)c1c(NC(=O)c2ccccc2F)sc(C(=O)Nc2cc(C(F)(F)F)ccc2Cl)c1C | 7.7% |
| O=C(CN1C(=O)/C(=C\c2ccccc2Cl)SC1=S)Nc1cc(Cl)ccc1O | -6.4% |
| CN(C)CCCNC(=O)c1ccc(N(C)S(=O)(=O)c2ccccc2)cc1 | -13.4% |
| COc1ccc(C=NCC2COc3ccccc3O2)cc1OC (stereo not given) | 4.8% |
| Cc1noc2c1/C(=N\O)CC(c1ccccc1)C2 (stereo not given) | 2.6% |
| Cc1ccc(/C=N/c2nc3ccc(Br)cc3n2C)c(O)c1 | -3.5% |
| O=C(CSc1ccccn1)N/N=C\c1c[nH]c2ccccc12 | 3.9% |
| COc1cc(-c2nc(-c3ccccc3)c(-c3cc([N+](=O)[O-])ccc3C)[nH]2)cc(OC)c1OC | 3.5% |
